Out of some 48,000 compounds screened, about 120 (0.25%) were called active. Roughly 4% stayed inconclusive and do not appear here. Calls come from the whole dose curve; as a rule, active = well fitted activation curve with a large enough effect; inconclusive = small, poorly fitted or top-dose-only effect, or another doubt; inactive = no such curve, though single readings can be large or run the other way. This is one part of the list.
Test: Primary qHTS for Identification of Small Molecule Activators of Huntingtin-Antisense Promoter Activity; note: nearly all actives have a fitted effect of over 55% in size
Conditions: HEK293 HTT-AS promoter firefly luciferase reporter (activity 0% = vehicle and -100% = no light), 24 h; series mostly up to 57.5 µM; activity change, positive = activation: at the top concentration
How it was run: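 HEK293 luciferase promoter-reporter cells (2,500/well) plated 24 h, then compounds added at up to 57.5 uM final for 24 h at 37 °C. Firefly luminescence by Dual-Glo, normalized to vehicle (0%) and zero RLU (-100%).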

Activity change, positive = activation, inactive:
Cc1cccn2c(=O)cc(COc3cccc(NC(=O)c4ccccc4F)c3)nc12 2.21%
O=C(Nc1cccc(Cl)c1)c1csnn1 6.52%
Cc1ccc(-c2nc(SCC(=O)NCC3CCCO3)c(-c3ccc(C)cc3)[nH]2)cc1 (stereo unspecified) -11.2%
NC(=O)c1cc(S(=O)(=O)NCC2CCC(C(=O)Nc3ccc(Cl)cc3)CC2)cs1 (stereo unspecified) -15.7%
Cc1ccc([N+](=O)[O-])cc1S(=O)(=O)N(C)N=Cc1cnc2ccc(Br)cn12 -39.4%
Cc1nnc(N2CCN(C(=O)Nc3cccc(C(F)(F)F)c3)CC2)c2nn(-c3ccccc3)c(C)c12 -5.76%
Cn1nc(C(=O)N2CCN(c3ccccc3)CC2)c2c1-c1ccccc1S(=O)(=O)C2 0.539%
COc1ccc(S(=O)(=O)c2c(SC)nn(Cc3ccccc3C)c2NC(C)=O)cc1 -7.66%
O=C(Nc1ccc(O)cc1)c1cccc(S(=O)(=O)N2CCOCC2)c1 -0.527%
O=C(CSc1nc2c([nH]c3ccccc32)c(=O)n1-c1ccccc1)N1CCCC1 -21.6%
O=C(O)c1cn(C2CC2)c2cc(Cl)c(F)cc2c1=O -5.66%
O=c1c2oc3ccccc3c2n(Cc2ccccc2)c(=O)n1Cc1ccc2c(c1)OCO2 -5.97%
CCOC(=O)c1cccc(Nc2ccc3cc(S(=O)(=O)N4CCCCC4)ccc3n2)c1 -30.4%
COc1cc(C2CC(=O)Nc3c2c(=O)[nH]c2ncnn32)ccc1O (stereo unspecified) -13%
CCOC(=O)C1CCCN(C(=O)c2ccc3c(c2)N(Cc2ccccc2)C(=O)c2ccccc2S3=O)C1 (stereo unspecified) -15.3%
CCCN1CCCc2cc(CN(CCCN3CCOCC3)C(=O)Nc3ccc(CC)cc3)ccc21 -33.4%
COc1ccc2oc(=O)cc(CN3CCN(c4ccccc4F)CC3)c2c1 -10.8%
COc1cccc(NS(=O)(=O)c2ccc3[nH]cc(C(=O)N(C)C4CCCCC4)c(=O)c3c2)c1 -3.76%
CCCCn1c(=O)c2oc3ccccc3c2n(CC(=O)Nc2cccc(Cl)c2)c1=O -12.9%
CCCCc1nn2c(=O)cc(COC(=O)c3ccccc3NC(=O)c3ccccc3OC)nc2s1 0%
CCCC(=O)N1c2nc(C(C)C)nn2C2(CCCCC2)[C@@H]2CCCC[C@@H]21 -20.2%
COc1cc2c(cc1OC)n(CC(=O)c1ccc(F)cc1)c(=O)n1nc(CCn3nc(C)cc3C)nc21 7.81%
COc1cccc(CNC(=O)c2ccc(NC(=O)N3CCCCc4ccccc43)cc2)c1 -12.4%
CCOC(=O)c1c(S(=O)(=O)N2CCCC(C(=O)Nc3ccc(OCC)cc3)C2)c(C)n(C)c1C (stereo unspecified) -23.5%
Cn1cc(-c2ccc3nnc(C(F)(F)c4ccc5ncccc5c4)n3n2)cn1 -7.49%
Cc1ccc(S(=O)(=O)c2cn(Cc3cccc(F)c3)c3cc(N4CCCC4)c(F)cc3c2=O)cc1 -1.44%
COc1ccc(C)cc1Nc1nc2c(S(=O)(=O)c3cccc(Cl)c3)nnn2c2ccsc12 -18.8%
CCOc1ccc(NC(=O)c2cc3sc(Cl)cc3n2CC)cc1 0.896%
CCCOc1ccccc1-c1nc(SCC(=O)c2ccccc2)n[nH]1 -24.8%
CCN1CCN(CCCNC(=O)c2ccc3nc(Cc4ccc(OC)cc4)oc3c2)CC1 4.37%
CCOc1cc(CNS(=O)(=O)c2ccc3c(c2)CC(=O)N3C)cc(OCC)c1OCC -9.62%
Cc1cc(C)n(C(C)CC(=O)NCc2ccccc2C)n1 (stereo unspecified) -4.49%
CCCCN(CCCC)c1ncnc2c1cnn2-c1cccc(C)c1 -17.6%
CC(=O)Nc1ccc(S(=O)(=O)N2CCC(c3ccncc3)CC2)cc1 8.56%
COc1ccc(Br)cc1C(=O)Nc1ccc2oc(-c3cccnc3)nc2c1 17.2%
COC(=O)c1c(NC(=O)c2cc(=O)c3c(C)cc(C)cc3o2)sc2c1CCCC2 -3.95%
Cc1cccc(NC(=O)CN(c2ccc(C(C)C)cc2)S(=O)(=O)c2c(C)nn(C)c2C)c1C -35.4%
CCOC(=O)C1CCN(S(=O)(=O)c2cc(-c3onc(C)c3C)ccc2C)CC1 -35.6%
Cc1ccc(-n2ncc3c(N4CCN(c5ccccc5)CC4)ncnc32)cc1C 0%
CC(=O)N1CCCc2cc(S(=O)(=O)N3CCC(C(=O)N(Cc4ccccc4)C(C)C)CC3)ccc21 -22.6%
COCCn1c(C)cc(O)c(C(c2ccccc2)N2CCC(C)CC2)c1=O (stereo unspecified) 0.99%
OC[C@@H](O)[C@@H](O[C@@H]1O[C@H](CO)[C@H](O)[C@H](O)[C@H]1O)[C@H](O)[C@@H](O)CO -2.98%
COc1ccc(N2C(=O)CSC23C(=O)N(C)c2ccccc23)cc1Cl (stereo unspecified) -20%
CCc1ccccc1Nc1cc(C(=O)NCc2ccc(C)cc2)c2ccccc2n1 -18.3%
CCOC(=O)N1CCN(C(=O)c2ccc3c(c2)N(Cc2ccccc2F)C(=O)c2ccccc2S3=O)CC1 (stereo unspecified) -11.6%
O=C(c1c2c(nc3ccccc13)C(=O)N(C1CCCCC1)C2)N1CCN(c2ccc(F)cc2)CC1 -7.23%
Cc1cc(C)cc(Nc2ncnc3c2nc2n3CCCC2)c1 -20.3%
COc1ccc(N2CC(NC(=O)COc3ccccc3F)CC2=O)cc1OC (stereo unspecified) -13.4%
CC(C)CCNC(=O)CN1C(=O)CCn2nc(-c3cn(C)c4ccccc34)cc21 0.499%
COc1ccc(C)c2sc(NC(=O)c3ccc(S(=O)(=O)N4CCCCC4)cc3)nc12 -15.5%
CCOc1ccc(NC(=O)CSc2oc(-c3ccco3)nc2S(=O)(=O)c2ccc(C)cc2)cc1 -24.5%
CCCN1CCN(CCCNC(=O)c2cc3c(Cl)nc4ccccc4c3s2)CC1 -24.2%
CCCOc1ccc(/C=C/C(=O)Nc2sc(C)c(C)c2C(=O)OCC)cc1OC -13.2%
Cc1nc(S(=O)(=O)N2CCN(c3ccc(Cl)cc3)CC2)cn1C -15.8%
Cc1nnc(SCc2cc(=O)c3ccccc3[nH]2)s1 -16.4%
CCOc1ccc(S(=O)(=O)NCCc2csc(-c3ccc(Cl)cc3)n2)cc1 -42.8%
CCOc1ccc(CCNC(=O)c2ccc(-c3nc(CSc4ccc(C)cc4)c(C)o3)cc2)cc1 -35%
COc1ccc(OCc2ccc(-c3nc(C#N)c(N4CCN(C)CC4)o3)o2)cc1 -28.2%
CCC1CN(C(=O)NCc2cccc(OC)c2)c2cc(Cl)ccc2O1 (stereo unspecified) -30.8%
Cc1ccccc1C(=O)c1cccn1CC(=O)NCc1ccc(Cl)cc1 -5.76%
COc1ccccc1CNC(=O)Cc1c(C)c2c(cc(C)c3c(C)c(C)oc32)oc1=O -0.988%
